Experimental findings from ChEMBL document CHEMBL5606460, “ASAP - DENV-2 NS2B-NS3 protease fluorescence single point” (2024) are described below.

The target of the assay is Genome polyprotein (dengue virus type 2) (UniProt P29990).
[1] abbreviates: Thailand/16681/1984, Concentration 25.0 uM, Number of replicates 1.0.

Molecules are shown by their SMILES. Screen size: about 2,000 compounds; about 110 (5.5%) showed an effect of 50% or more. Some of the results follow.

For the compound `Cn1nccc1C1CCN(Cc2c[nH]c3ccccc23)CC1`, the inhibition – broadly, the change of the read-out against control, counted positive when it falls – (Thailand/16681/1984, Concentration 49.5 uM, Number of replicates 2.0, Standard deviation 0.06061551323467077 %) came to 0.129%; the inhibition (Thailand/16681/1984, Concentration 99.01 uM, Number of replicates 2.0, Standard deviation 0.20163937411430433 %) was found to be 1.16%; the inhibition (Thailand/16681/1984, Concentration 198.0 uM, Number of replicates 2.0, Standard deviation 0.8816052707337766 %) was found to be 1.64%. For the compound `COc1cccc(CCNC(=O)C2CCN(c3ccc(C=O)cc3)CC2)c1`, the inhibition under setting [1] was 0.237%. On the same count and under the same terms, to `Cc1cccc(OC2CN(C(=O)C3CCN(c4ccc(C=O)cc4)CC3)C2)c1` belongs 13.8%. Take `CC1(C)C[C@@](C)(CNC(=O)c2cnc[nH]2)CN1C(=O)c1ccc2[nH]nnc2c1`: the inhibition is, setting by setting: (Thailand/16681/1984, Concentration 49.5 uM, Number of replicates 2.0, Standard deviation 1.241999136987217 %) -0.502%; (Thailand/16681/1984, Concentration 99.01 uM, Number of replicates 2.0, Standard deviation 2.0572991963778975 %) -1.12%; (Thailand/16681/1984, Concentration 198.0 uM, Number of replicates 2.0, Standard deviation 0.660730470085805 %) -0.351%. For the compound `O=Cc1ccc(N2CCC(C(=O)N(Cc3ccncc3)C[C@H]3CCCO3)CC2)cc1`, the inhibition under setting [1] came to 13%. Regarding `NCc1cccc(NC(=O)[C@H]2CCN(C(=O)OCc3ccccc3)C2)c1`, the inhibition by setting is: (Thailand/16681/1984, Concentration 49.5 uM, Number of replicates 2.0, Standard deviation 1.9221944810499825 %) -1.99%; (Thailand/16681/1984, Concentration 99.01 uM, Number of replicates 2.0, Standard deviation 1.6664051520702452 %) -1.6%; (Thailand/16681/1984, Concentration 198.0 uM, Number of replicates 2.0, Standard deviation 2.955416090340052 %) -1.98%. As for `CCc1ccc(CN(CC(C)C)C(=O)C2CCN(c3ccc(C=O)cc3)CC2)cc1`, the inhibition under setting [1] came out at 13.3%. On the same count and under the same terms, to `O=Cc1ccc(N2CCC(C(=O)NCC3CCC(C(F)(F)F)CC3)CC2)cc1` (stereo not given) belongs 12.8%. Turning to `COc1ccc(CN(C)C(=O)C2CCN(c3ccc(C=O)cc3)CC2)cc1O`, the inhibition under setting [1] stood at 12%.

For the compound `CCCCCC(=O)N[C@H](C(=O)NCc1cccc(CN)c1)C1CCOCC1`, the inhibition is, setting by setting: (Thailand/16681/1984, Concentration 49.5 uM, Number of replicates 2.0, Standard deviation 0.3191238144371867 %) -0.317%; (Thailand/16681/1984, Concentration 99.01 uM, Number of replicates 2.0, Standard deviation 0.8995270800981244 %) -1.52%; (Thailand/16681/1984, Concentration 198.0 uM, Number of replicates 2.0, Standard deviation 0.867663767595949 %) -1.86%.

In the case of `CNC(=O)c1cc(Cl)ccc1NS(=O)(=O)Cc1ncoc1C(F)F`, the inhibition (Thailand/16681/1984, Concentration 49.5 uM, Number of replicates 2.0, Standard deviation 0.011958915383875116 %) was -9.8%. With `O=Cc1ccc(N2CCC(C(=O)N3CCN(c4ccc([N+](=O)[O-])cc4C(F)(F)F)CC3)CC2)cc1`, the inhibition under setting [1] was 16.7%.

For `O=Cc1ccc(N2CCC(C(=O)N3CCn4c(nnc4C(F)(F)F)C3)CC2)cc1`, the inhibition under setting [1] was 14.7%. The same measure, in the same setting: for `N#C[C@@H](NC(=O)C1CCN(c2ccc(C=O)cc2)CC1)c1ccc(F)cc1` the value was 13.8%. On to `COc1cc(CS(=O)(=O)C2CCOCC2)nc(N2CCNCC2)n1`, for which the inhibition by setting is: (Thailand/16681/1984, Concentration 49.5 uM, Number of replicates 2.0, Standard deviation 2.171535110399886 %) 0.445%; (Thailand/16681/1984, Concentration 99.01 uM, Number of replicates 2.0, Standard deviation 1.244444665725213 %) 0.302%; (Thailand/16681/1984, Concentration 198.0 uM, Number of replicates 2.0, Standard deviation 0.8896322631561329 %) 0.625%. Regarding `O=Cc1ccc(N2CCC(C(=O)NCc3cc(Cl)cc(Cl)c3)CC2)cc1`, the inhibition under setting [1] was 1.55%. With `CCCC[C@H](NC(C)=O)C(=O)N[C@H](C(=O)NCc1ccc(CN)cc1)c1ccccc1`, the inhibition (Thailand/16681/1984, Concentration 49.5 uM, Number of replicates 2.0, Standard deviation 1.3580554366166637 %) came to 0.537%; the inhibition (Thailand/16681/1984, Concentration 99.01 uM, Number of replicates 2.0, Standard deviation 18.440494023113153 %) was 14.1%; the inhibition (Thailand/16681/1984, Concentration 198.0 uM, Number of replicates 2.0, Standard deviation 14.8908767477505 %) was found to be 56%. `COc1ccc(C)cc1NC(=O)CNC(=O)C1CCN(c2ccc(C=O)cc2)CC1`: the inhibition under setting [1] turned out to be 13.8%. On to `O=Cc1ccc(N2CCC(C(=O)Nc3cc(Cl)c(F)cc3F)CC2)cc1`, for which the inhibition under setting [1] is 14.9%. With `c1ccc2c([C@H]3CCN(Cc4cnc5ccccn45)C3)c[nH]c2c1`, the inhibition (Thailand/16681/1984, Concentration 49.5 uM, Number of replicates 2.0, Standard deviation 0.7151563656367946 %) was 1.09%; the inhibition (Thailand/16681/1984, Concentration 99.01 uM, Number of replicates 2.0, Standard deviation 0.3281880684602654 %) amounted to 2.8%; the inhibition (Thailand/16681/1984, Concentration 198.0 uM, Number of replicates 2.0, Standard deviation 0.2432837478972515 %) was 4.76%. For `O=Cc1ccc(N2CCC(C(=O)N3CCN(C(=O)Cc4ccccc4)CC3)CC2)cc1`, the inhibition under setting [1] is 12.3%.

Regarding `CC(C)(CO)NC(=O)c1cc(Cl)cc(NC(=O)c2c[nH]c(C(=O)N3CCCC3)c2)c1`, the inhibition was -0.782% (Thailand/16681/1984, Concentration 49.5 uM, Number of replicates 2.0, Standard deviation 0.9785954951352289 %); -0.088% (Thailand/16681/1984, Concentration 99.01 uM, Number of replicates 2.0, Standard deviation 1.3032331973706335 %); 0.634% (Thailand/16681/1984, Concentration 198.0 uM, Number of replicates 2.0, Standard deviation 0.3823857967784853 %). As for `O=Cc1ccc(N2CCC(C(=O)Nc3nc4[nH]cnc4c(=O)[nH]3)CC2)cc1`, the inhibition under setting [1] is 12.7%.

On to `Cc1ccc(C[C@H]2CCCN(C(=O)C3CCN(c4ccc(C=O)cc4)CC3)C2)cc1`, for which the inhibition under setting [1] is 11.2%. In the case of `COc1cc(COCc2cccnc2OC)nc(N2CCNCC2)n1`, the inhibition is -1.61% (Thailand/16681/1984, Concentration 49.5 uM, Number of replicates 2.0, Standard deviation 1.1112599079343632 %); 0.635% (Thailand/16681/1984, Concentration 99.01 uM, Number of replicates 2.0, Standard deviation 0.08428096867353778 %); 1.43% (Thailand/16681/1984, Concentration 198.0 uM, Number of replicates 2.0, Standard deviation 0.32567822363144167 %). As to `O=Cc1ccc(N2CCC(C(=O)Nc3ccc4cc(Br)ccc4c3)CC2)cc1`, the inhibition under setting [1] worked out at 11.2%.

For `CC(C)c1nc(CN(C)C(=O)C2CCN(c3ccc(C=O)cc3)CC2)cs1`, under setting [1], the inhibition was found to be 15.9%.
